# Reference: PMC4336329 (PLoS ONE, 2015)
# In all, about 310,000 compounds went through this assay and about 14,000 (4.5%) showed an effect of 50% or more. Effects have a minus sign here. The list shows a part of the results.
# Target: human ether-à-go-go-related gene (hERG) potassium channel (human, UniProt Q12809)
# Test: primary screen, population patch clamp on CHO cells stably expressing hERG
# 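Note: peak tail current of the secondary pulse compared with the same well before compound.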
# human ether-à-go-go-related gene (hERG) potassium channel, sequence (Q12809 whole entry, looked up): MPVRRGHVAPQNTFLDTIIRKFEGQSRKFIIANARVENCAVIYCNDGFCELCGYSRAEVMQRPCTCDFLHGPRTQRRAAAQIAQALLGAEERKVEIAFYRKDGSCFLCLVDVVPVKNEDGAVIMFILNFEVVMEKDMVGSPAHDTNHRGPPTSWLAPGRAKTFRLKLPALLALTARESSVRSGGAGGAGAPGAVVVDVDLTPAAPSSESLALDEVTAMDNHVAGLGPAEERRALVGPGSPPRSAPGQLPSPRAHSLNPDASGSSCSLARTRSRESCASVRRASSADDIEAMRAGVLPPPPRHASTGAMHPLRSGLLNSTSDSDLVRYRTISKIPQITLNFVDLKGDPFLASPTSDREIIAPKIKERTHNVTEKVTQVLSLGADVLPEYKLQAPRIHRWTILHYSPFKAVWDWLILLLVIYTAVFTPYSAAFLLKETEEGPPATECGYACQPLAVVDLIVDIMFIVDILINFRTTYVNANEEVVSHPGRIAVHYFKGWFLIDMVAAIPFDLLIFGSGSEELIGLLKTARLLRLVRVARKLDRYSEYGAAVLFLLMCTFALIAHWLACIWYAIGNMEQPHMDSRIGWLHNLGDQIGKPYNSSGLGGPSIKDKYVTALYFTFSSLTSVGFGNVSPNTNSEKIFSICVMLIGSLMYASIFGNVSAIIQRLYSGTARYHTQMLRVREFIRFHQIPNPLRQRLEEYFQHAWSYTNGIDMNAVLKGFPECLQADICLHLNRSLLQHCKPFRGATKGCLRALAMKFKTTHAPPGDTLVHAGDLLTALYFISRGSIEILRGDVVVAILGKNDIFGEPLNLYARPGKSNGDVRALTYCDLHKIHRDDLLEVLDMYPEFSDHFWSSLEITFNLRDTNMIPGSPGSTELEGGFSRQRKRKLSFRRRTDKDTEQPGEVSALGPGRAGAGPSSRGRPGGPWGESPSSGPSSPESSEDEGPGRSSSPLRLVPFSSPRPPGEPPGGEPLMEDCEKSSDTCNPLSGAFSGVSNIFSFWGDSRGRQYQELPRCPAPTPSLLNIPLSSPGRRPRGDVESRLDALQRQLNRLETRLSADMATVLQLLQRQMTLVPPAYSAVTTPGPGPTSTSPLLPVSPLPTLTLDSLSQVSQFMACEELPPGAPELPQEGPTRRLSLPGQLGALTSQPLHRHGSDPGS
row,Compound,"hERG current change (%, negative = inhibition) at 10uM [%]"
1,CCOC(=O)CNC(=O)c1ccccc1Br,6.04
2,COC(=O)C1=C(C)NC(=O)NC1c1ccccc1 (stereo not shown),1.45
3,CCOC(=O)CSc1nc2ccccc2c(=O)n1CCCCCC(=O)NCc1ccco1,-33.8
4,Cn1c(N)c(Sc2ccc([N+](=O)[O-])cc2)c(=O)n(C)c1=O,-17.7
5,CC(C)(C)CC(=O)NCc1ccc(F)cc1,-13
6,CC(=O)N(c1c(C)n(C)n(-c2ccccc2)c1=O)C1(C(=O)NC2CCCC2)CCCCC1,-8.96
7,O=C(Nc1ccc(Nc2ccccc2)cc1)c1ccc(Cl)cc1Cl,2.93
8,O=c1ccc(-c2ccccc2)no1,5.52
9,CC[C@@H]1[C@H]2CCCC(=O)N3CC[C@@H](C[C@@H]1OC(=O)NCc1ccccc1)[C@@H]23,-5.22
10,Cc1ccc(C(=O)NC2CCCCCC2)cc1N1CCCC1=O,-3.64
11,COc1ccc(C2SCC(=O)N2c2ccc(C)cc2)cc1 (stereo not shown),18.3
12,c1ccc2c(c1)OCC(c1nnc3sc(-c4cnccn4)nn13)O2 (stereo not shown),-15.1
13,CC(CCn1cccn1)NC(=O)CCc1nnc(CCc2ccccc2)o1 (stereo not shown),3.9
14,Cc1ccc(N2C(=O)C3CCC(C)(C2=O)C3(C)C)cc1C (stereo not shown),26.4
15,O=C(N/N=C/c1ccc2c(c1)OCO2)C(=O)Nc1ccccc1,8.24
16,COc1ccc(C(=O)OC(C)C(=O)NC(C)CCc2ccccc2)cc1OC (stereo not shown),-2.04
17,NS(=O)(=O)c1cc2c(cc1C(F)(F)F)NCNS2(=O)=O,-8.3
18,COc1ccc(OCC(=O)N/N=C/C2CC=CCC2)cc1 (stereo not shown),0.345
19,CC(C)N(C(=O)Cn1cc(SCC(=O)N2CCCC2)c2ccccc21)C(C)C,-27.3
20,CC1(C)Oc2ccc3ccc(=O)oc3c2C(/C=N/O)=C1Cl,14.7
21,CC(C)N(Cc1nc(-c2ccccc2)no1)C(=O)CN1C(=O)c2ccccc2C1=O,-5.09
22,COc1ccc2c(c1)OC[C@H]1[C@H]2N2C(=O)CN(Cc3ccco3)C(=O)[C@@]2(C)[C@H]1c1ccccc1,10.7

row,Compound,"hERG current change (%, negative = inhibition) at 10uM [%]"
1,CSCC(=O)N1CCc2ccc(NC(=O)c3ccccc3Cl)cc2C1,-31.9
2,CC(NC(=O)OCc1ccccc1)C(=O)NCC1CCCO1 (stereo not shown),4.14
3,CC(/C=C/c1ccccc1)=N\Nc1nc2c(c(=O)[nH]c(=O)n2C)n1CCO,-0.388
4,O=C(CSc1ccc2nnc(-c3ccc(F)cc3)n2n1)N1CCCc2ccccc21,-16
5,CCn1cc(/C=C(\NC(=O)c2ccccc2F)C(=O)NCCCN2CCOCC2)c2ccccc21,1.67
6,CCN(CC)S(=O)(=O)c1cc(NC(=O)C(C)N(C)CC(=O)Nc2c(C)cccc2C)ccc1C (stereo not shown),-15.4
7,CC(=O)N(CCCCN1C(=O)c2ccccc2C1=O)c1ccc(C)cc1,-34.5
8,Oc1cccc(/C=N/N2CCN(C3c4ccccc4-c4ccccc43)CC2)c1,7.98
9,COc1ccc(C2(c3ccc(OC)cc3)NC(=O)N(CC(=O)Nc3ccccc3C(F)(F)F)C2=O)cc1,9.73
10,COc1cccc(CC(NC(C)=O)C(=O)NC2CCN(c3ncccc3[N+](=O)[O-])CC2)c1 (stereo not shown),29.3
11,COC(=O)c1ccc(COC(=O)c2cc3ccccc3oc2=O)cc1,14.9
12,O=C(NC1CCCCCC1)c1ccc(Cl)c(S(=O)(=O)N2CCOCC2)c1,-15.7
13,CC(NS(=O)(=O)c1ccc(OCC(=O)NCc2cccnc2)cc1)c1ccccc1 (stereo not shown),13.4
14,C#CCOCCOCCOCCNc1nc(N2CCN(C(=O)[C@H](CCC(=O)O)n3cc(C(N)Cc4ccc(O)cc4)nn3)CC2)nc(N2CCN(C(=O)[C@H](Cc3cc4ccccc4[nH]3)n3cc(C(N)CC(C)C)nn3)CC2)n1.Cl (stereo partly shown),4.72
15,COc1ccc(OCC(=O)Nc2ccc(Cl)cc2)cc1,6.34
16,COc1cccc(CNC(=O)C2CC(=O)N(C3CCCCC3)C2)c1 (stereo not shown),6.07
17,Cc1cc(C)cc(C(=O)Nc2ccncc2)c1,7.83
18,CC(C)OCCCNC(=O)c1c(N)n(/N=C/c2ccccn2)c2nc3ccccc3nc12,8.35
19,O=C(/C=C/c1ccc(S(=O)(=O)N2CCOCC2)cc1)OCC(=O)c1ccc([N+](=O)[O-])cc1,-11.9
20,COC(=O)c1cccc(NC(=O)C2COc3ccccc3O2)c1C (stereo not shown),-2.79
21,COCCNC(=O)c1cc(-c2cccs2)on1,-2.54
22,Cc1cc(OCC(=O)NC(C)(C)C)ccc1Cl,7.04

row,Compound,"hERG current change (%, negative = inhibition) at 10uM [%]"
1,O=C1c2ccccc2NC2CCCCCN12 (stereo not shown),3.56
2,CCOc1ccc2nc(N=Nc3c(O)[nH]c(=O)[nH]c3=O)sc2c1,-0.012
3,O=C(O)C(=O)O.c1ccc(CC2CCN(Cc3ccccn3)CC2)cc1,-23.1
4,CCN(CC)CCn1c2c(c(SCC(=O)Nc3nc4ccc(C)cc4s3)nc1=O)CCC2,-30.4
5,Cc1ccc(N2C(=O)N(CC(=O)N(C)Cc3ccccc3)C(=O)C2C)cc1 (stereo not shown),-21.7
6,CCOC(=O)N1CCC(NC(=O)c2ccc(CS(=O)(=O)c3ccc(OC)cc3)o2)CC1,-33.4
7,CCOc1ccc(C(=O)NCC(=O)OCC(=O)NC2CCCC2)cc1,0.69
8,CCc1ccc(/C(C)=N/NC(=O)c2ccccn2)cc1,8.04
9,Cc1nc2ccccc2n1CC(=O)N/N=C\C=C\c1ccccc1,10.9
10,CCc1[nH]nc(C(=O)NC2CCCN(Cc3ccccc3F)C2)c1C (stereo not shown),0.368
11,COc1cccc(OC)c1C(=O)Nc1ccnn1C,-31.2
12,CCNS(=O)(=O)c1ccc(NC(=O)c2cccnc2)cc1,18.5
13,COCCCNc1ncnc2sc3c(c12)CCC(C)C3 (stereo not shown),-24.5
14,Cc1ccc2nc(SCC(=O)N/N=C/c3ccc(C(=O)O)cc3)cc(C)c2c1,-18.1
15,c1ccc2c(Cn3ccnc3)cccc2c1,9.72
16,Cn1c(NCCCO)nc2c(c1=O)C1(CCCCC1)Cc1ccccc1-2,-11.8
17,COc1ccc2[nH]c(C)c(CCNC(=S)Nc3ccc(C)cc3)c2c1,-0.172
18,Cc1c(Cl)cccc1NC(=O)c1cc(-c2ccco2)on1,-0.802
19,CNC(=O)COC(=O)c1cc(SC)ccc1Cl,23.6
20,Cc1ccc(NC(=O)N(CCCN2CCOCC2)Cc2cccs2)cc1C,-47.6
21,CN(C)S(=O)(=O)c1ccc(NC(=O)CCNC(=O)c2ccco2)cc1,9.63
22,Cc1ccc(C2OC(=O)c3ccccc32)cc1 (stereo not shown),-0.543

row,Compound,"hERG current change (%, negative = inhibition) at 10uM [%]"
1,COc1cc(C(=O)N/N=C/c2ccc(OC(=O)c3ccccc3Cl)c(OC)c2)ccc1O,13.4
2,O=C(Nc1nccs1)c1cn(-c2ccccc2)nc1-c1ccccc1,-23.8
3,COc1ccc(CCNC(=O)COC(=O)C2CC2C)cc1OC (stereo not shown),6.27
4,COc1cccc(C=NCCNC(=O)c2nonc2N)c1O,1.59
5,COc1ccc(CN=C(NS(=O)(=O)c2cccs2)SC)cc1,-5.77
6,CS(=O)(=O)N1CC2CCCN2c2cc(C(F)(F)F)ccc21 (stereo not shown),-19.2
7,CCn1c(COc2c(C)cccc2C)nnc1SCC(=O)N1CCN(c2ccccc2)CC1,-8.6
8,O=C(C#Cc1ccccc1)Nc1cccc(F)c1,-21.7
9,Cc1ccc(-c2csc(NC(=O)CSc3nc(C)cc(=O)[nH]3)n2)cc1,1.07
10,CC(C)NC(=O)C(OC(=O)c1ccccc1)C(OC(=O)c1ccccc1)C(=O)O (stereo not shown),10.9
11,CC(C)C(c1nnnn1Cc1ccco1)N1CCC(C(N)=O)CC1 (stereo not shown),9.26
12,Br.CC(=O)Nc1ccc(-c2csc(N/N=C(/C)c3ccccc3)n2)cc1,5.38
13,CCn1c(=O)c(C(=O)CN2CCN(Cc3ccc4c(c3)OCO4)CC2)c(N)n(Cc2ccccc2)c1=O,-72
14,CCCc1cc(=O)[nH]c(SCC)n1,-5.96
15,Cc1cc(=O)oc2cc(OCC(=O)Nc3nnc(C4CC4)s3)ccc12,-0.423
16,CC(C)C[C@H](NC(=O)C1CC(=O)N(c2ccc(F)cc2)C1)C(=O)N1CCCCC1 (stereo partly shown),-0.716
17,O=C(Cc1cccs1)N1CCN(c2nc(-c3ccc(Cl)cc3)cs2)CC1,-8.73
18,CN(c1ccccc1C(=O)NCc1ccco1)S(C)(=O)=O,15.5
19,COc1cc(Cl)c(C)cc1N1C(=O)CN(Cc2ccccc2)C1=S,0.634
20,Nc1nnc(SCc2ccc(F)cc2Cl)s1,-7.73
21,O=c1[nH]c(=O)n(C2CCCCC2)c(O)c1/C=C/C=Nc1ccccc1,15.7
22,CC1CCN(C(=O)CN2C(=O)C(C)(C)Oc3ccc(C(=O)NC4CCCC4)cc32)CC1,-1.35
